Experimental data from PubChem BioAssay AID624417 (National Center for Advancing Translational Sciences (NCATS), 2012).
The campaign covered roughly 410,000 compounds. About 6,400 (1.6%) were called active. Inconclusive means that the source gave no clear call. Such entries were picked first, then a sample of the others. The call rests on the fitted dose curve; in most records, active means well fitted inhibition curve with a large enough effect; inconclusive means small, poorly fitted or top-dose-only effect; inactive means no such curve, though single readings can be large or run the other way. A potency beside an inconclusive call is a rough fit, not a confirmed value.

These molecules were tested against Glucagon-like peptide 1 receptor (Homo sapiens) (UniProt P43220) (assay: qHTS of GLP-1 Receptor Inverse Agonists (Inhibition Mode)). Details: HEK293 GLP-1R CRE-luciferase, luminescence, 24 h, GLP-1R form is constitutively active; activity change, negative = inhibition: at 38.3 µM (top of the series) unless noted.
In short: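 Luminescence readout: a drop in cAMP-driven luciferase signal flags inverse agonism at a constitutively active GLP-1R stably expressed in HEK293. Compound exposure lasted 24 hr at 37 deg C, 5% CO2.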
Further: nearly all actives have a fitted effect of over 55% in size.
On the % scale 0 is the no-effect control and ±100 the full control effect; potency means the concentration at half of the fitted maximal effect; tags describe the fitted curve by direction and shape.

Sequence of UniProt P43220 (P43220 whole entry, looked up): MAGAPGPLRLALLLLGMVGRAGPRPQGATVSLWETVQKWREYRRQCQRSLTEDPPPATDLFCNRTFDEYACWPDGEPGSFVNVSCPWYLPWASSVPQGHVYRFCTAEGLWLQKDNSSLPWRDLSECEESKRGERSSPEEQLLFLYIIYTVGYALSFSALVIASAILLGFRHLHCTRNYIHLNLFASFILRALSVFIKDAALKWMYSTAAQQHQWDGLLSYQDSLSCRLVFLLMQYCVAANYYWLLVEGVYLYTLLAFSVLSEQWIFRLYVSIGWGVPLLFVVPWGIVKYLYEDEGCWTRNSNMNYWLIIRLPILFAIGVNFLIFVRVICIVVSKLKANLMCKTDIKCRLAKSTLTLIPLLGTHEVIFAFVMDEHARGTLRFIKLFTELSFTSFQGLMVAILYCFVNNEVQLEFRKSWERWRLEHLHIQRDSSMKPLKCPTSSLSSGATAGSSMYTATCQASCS

Activity change, negative = inhibition, inactive:
CCOc1ccc2nc(SCC(=O)N(C)C3CCS(=O)(=O)C3)[nH]c2c1 (stereo unspecified) -3.88%
O=C1CCC/C=C\C[C@H](CC(=O)N(CCO)Cc2ccccc2)C(=O)N2CCC[C@@H]2CO1 4.24%
COCCNC(=O)c1cc(-c2ccccc2)sc1N 26.3%
COc1ccc2oc(=O)c(C(=O)Oc3ccc(NC(C)=O)cc3)cc2c1 1.04%
CC(=O)N(c1ccccc1C)C1CCCC1 -15.6%
COc1cccc(-c2noc(COc3ccccc3Cl)n2)c1 -24.2%
Cc1ccccc1N=Nc1c(O)[nH]c2ccccc12 3.06%
COc1cc2c(cc1NC(=O)CCC(=O)O)oc1ccccc12 7.29%
CCN(CC)CCNC(=O)Cn1nc(C)c2c(C)n(-c3ccccc3)nc2c1=O -3.06%
O=C(N/N=C/c1ccsc1)c1ccc2c(c1)OCO2 3.4%
COc1ccc(-c2onc(C)c2C)cc1S(=O)(=O)NCC1CCN(Cc2cc(C)ccc2C)CC1 5.81%
Clc1ccc(OCCn2ccnc2)c(Br)c1 4.09%
C/C(Cc1ccccc1)=N\NC(=O)CNC(=O)c1ccc(Cl)cc1 1.16%
COc1ccc(CN2C(=O)CN(S(C)(=O)=O)CC2(C)C(=O)NCc2ccccc2)cc1OC (stereo unspecified) 22.3%
CN(Cc1ccccc1)c1ncnc2[nH]ncc12 57.5%
Cc1ccc(CNC(=O)CCCn2c(=O)[nH]c3ccc(Br)cc3c2=O)cc1 7.42%

Potency, inconclusive:
Cc1ccc(C)c2c1CCC(=Cc1ccccc1[N+](=O)[O-])C2=O 10 µM [inhibitor, partial curve, poor fit]
O=C(O)c1cccc(N/N=C/c2cccnc2)c1 6.31 µM [inhibitor, partial curve, poor fit]
CNC(C)C(=O)NC(C(=O)N1CCCC1C(=O)NNc1ccccc1)C(C)C (stereo unspecified) 0.891 µM [inhibitor, full curve, poor fit]
NC1=NC(=O)C(c2ccccc2)(c2ccccc2)S1 11.2 µM [inhibitor, partial curve]
COc1ccccc1S(=O)(=O)N(C)C[C@H]1Oc2cc(C#CCC3CCCC3)ccc2S(=O)(=O)N([C@H](C)CO)C[C@H]1C 15.8 µM [inhibitor, single point]
c1ccc(-c2nc3nc4ccccc4nc3n2Cc2ccco2)cc1 11.2 µM [inhibitor, partial curve, poor fit]
CCNC(=S)NNC(=O)c1cc(-c2ccc(OCC)cc2)nc2ccccc12 11.2 µM [inhibitor, single point]
COc1cc2c(c(O)c1OC)-c1c(cc(OC)c(OC)c1OC)C[C@@H](C)[C@@H](C)C2 22.4 µM [inhibitor, single point]
COc1ccc(NC(=O)CCS(=O)(=O)c2ccc(Br)s2)cc1 10 µM [inhibitor, partial curve, poor fit]
Cc1cc(C(C)(C)C)ccc1OCCN1CCCC1 22.4 µM [inhibitor, single point]
CCc1ccc(NC(=O)CC2C(=O)N(c3cccc(C)c3)C(=O)N2Cc2ccco2)cc1 (stereo unspecified) 28.2 µM [inhibitor, single point]
COc1ccccc1NC(=O)CN(c1ccccc1C)S(C)(=O)=O 20 µM [inhibitor, single point]
COc1ccc(-c2onc(C)c2-c2cnn(-c3ccccc3)c2)c(O)c1 11.2 µM [inhibitor, single point]
Cc1ccc(OCC(O)CN2CCN(Cc3ccc4c(c3)OCO4)CC2)c(C)c1 (stereo unspecified) 7.94 µM [inhibitor, partial curve, poor fit]
O=C(Nc1ccc(F)c(Cl)c1)C1CCCN(c2cnccn2)C1 (stereo unspecified) 10 µM [inhibitor, single point]
CCc1ccc(NC(=O)CSc2nc3ccccc3nc2N2CCCCC2)cc1 2 µM [inhibitor, partial curve, poor fit]
COc1ccc(S(=O)(=O)NCC(c2ccco2)N2CCN(c3ccc(F)cc3)CC2)cc1C (stereo unspecified) 10 µM [inhibitor, partial curve]
COCCCNC(=S)N/N=C/c1ccc2ccccc2c1 12.6 µM [inhibitor, single point]
CCN(c1cccc(C)c1)S(=O)(=O)c1ccc(-c2coc(C)n2)cc1 28.2 µM [inhibitor, single point]
CCOC(=O)C1(Cc2ccccc2C(F)(F)F)CCN(CC2CC2)CC1 15.8 µM [inhibitor, partial curve, poor fit]
Cc1ccccc1NC1=C(C(=O)c2ccccc2)N(C)S(=O)(=O)c2ccccc21 22.4 µM [inhibitor, single point]
C=CCn1c(=O)c(C(=O)NCCc2ccccc2)c(O)c2ccccc21 28.2 µM [inhibitor, single point]
Cc1ccccc1OCCn1c(CCNC(=O)C(C)C)nc2ccccc21 10 µM [inhibitor, partial curve]
Cn1nc(C(F)(F)F)c2cc(NC(=O)OCc3ccc(F)cc3)sc21 7.94 µM [inhibitor, partial curve, poor fit]
O=C(CSCc1cnn(-c2ccccc2)c1-n1cccc1)NCc1cccs1 12.6 µM [inhibitor, partial curve, poor fit]
Cc1cccc(NC(=S)NCCC(c2ccccc2)c2ccccc2)c1 31.6 µM [inhibitor, single point]
CC(C)Oc1ccc(CCN=C(N)N=C(N)N)cc1Cl 11.2 µM [inhibitor, single point]
CN=C(Nc1ccccc1)SC1CC(=O)N(c2cccc(OC)c2)C1=O (stereo unspecified) 11.2 µM [inhibitor, single point]
CCCCc1noc(-c2c(-c3ccccc3Cl)noc2C)n1 28.2 µM [inhibitor, single point]
CCn1c(=O)c2cc(C(=O)NCCCN3CCC(C)CC3)sc2c2ccccc21 28.2 µM [inhibitor, single point]
CN(C)c1ccc(/C=C(/C(=O)c2ccc(Cl)cc2Cl)n2cncn2)cc1 28.2 µM [inhibitor, single point]
CCc1cc(=O)oc2c(C)c(OCC(=O)NC3CC(C)(C)NC(C)(C)C3)ccc12 10 µM [inhibitor, single point]
FC(F)(F)c1cccc(-c2nc3ccccc3n2C(c2ccccc2)c2nc3ccccc3[nH]2)c1 (stereo unspecified) 11.2 µM [inhibitor, partial curve, poor fit]
COC(=O)c1ccc(OCCCCN(C)Cc2ccccc2)cc1 11.2 µM [inhibitor, partial curve, poor fit]
COc1cc2c(cc1OC)C(c1ccc(-c3ccc(Cl)cc3Cl)o1)=NCC2 28.2 µM [inhibitor, single point]
C=C(C)Cn1c(SCC(=O)N/N=C/c2c(O)ccc3ccccc23)nc2ccccc2c1=O 28.2 µM [inhibitor, single point]
CCCCCCCNC(=O)CN1C(=O)CSc2ccc(S(=O)(=O)N3CCOCC3)cc21 14.1 µM [inhibitor, partial curve, poor fit]
CCOC(=O)N1CCN(CC(=O)Nc2ccc(F)cc2)CC1 28.2 µM [inhibitor, single point]
COc1ccc2c(c1)C=C(CN1CCC(CO)(CCc3ccccc3)CC1)CO2 5.01 µM [inhibitor, partial curve, poor fit]
COc1cccc(SCc2noc(C(=O)NCC3CC3)c2C(=O)NCC2CC2)c1 11.2 µM [inhibitor, partial curve, poor fit]
CCN(C(=O)COC(=O)c1cn(-c2ccccc2)nc1-c1ccccc1)C1CCS(=O)(=O)C1 (stereo unspecified) 11.2 µM [inhibitor, single point]
CCCOc1ccc(C(F)(F)F)cc1NS(=O)(=O)c1ccc(Cl)nc1 12.6 µM [inhibitor, single point]
COc1ccccc1C(CC(=O)Nc1ccccc1C)c1ccc(OC(C)C)cc1 (stereo unspecified) 7.08 µM [inhibitor, partial curve, poor fit]
O=C(CN(c1cccc(C(F)(F)F)c1)S(=O)(=O)c1ccc(Cl)c([N+](=O)[O-])c1)NCc1ccccc1Cl 28.2 µM [inhibitor, single point]
CN(C(=O)c1cccc(NC(=O)Cc2ccc([N+](=O)[O-])cc2)c1)C1CCCCC1 28.2 µM [inhibitor, single point]
CC(C)CN(C(=O)c1nn(C)c(=O)c2ccccc12)c1nc2ccccc2s1 0.501 µM [inhibitor, full curve, poor fit]
COc1ccc2nc(C)cc(Nc3ccc(Cl)c(Cl)c3)c2c1 28.2 µM [inhibitor, single point]

Potency, active:
O=C(Nc1ccc(Cl)c(C(F)(F)F)c1)NC1CC2CCCC(C1)N2C1CC1 (stereo unspecified) 3.16 µM
Cc1ccc(C)c(N2CCN(C(=O)c3ccc4c(=O)n5c(nc4c3)CCCCC5)CC2)c1 1.78 µM
CCN1CC(CN(C)Cc2cn(-c3cccc(C)c3)nc2-c2cccc(F)c2)CC1=O (stereo unspecified) 10 µM
